Measured values taken from ChEMBL document CHEMBL4888484, “Replenishing the malaria drug discovery pipeline: Screening and hit evaluation of the MMV Hit Generation Library 1 (HGL1) against asexual blood stage Plasmodium falciparum ,using a nano luciferase reporter read-out” (2022).
Hit rate of the full screen: of about 150,000 compounds, about 540 (0.36%) showed an effect of 50% or more. The list shows a part of the results.

System: Plasmodium falciparum
Assay: Primary screen in NF54 nanoGlo assay, in single point, at 2uM, 72h; a lower Z score goes with more inhibition
Assay type: functional, Erythrocyte
Details: timepoint 72 hour

| SMILES | % Inhibition | Z score |
| --- | --- | --- |
| CN1CCN(Cc2nc(-c3ccco3)no2)CC1 | -3% | 0.43 |
| Cc1nc(O)cc(CNC(=O)c2nc(C(C)C)cs2)n1 | 9% | -0.82 |
| CCc1n[nH]cc1C(=O)NCc1cc2c(nc1OC)CN(C1CCCC1)C2=O | 10% | -1.32 |
| CCOc1ccccc1N1CCN(c2ncc3c(=O)n(C4CCCC4)c(=O)[nH]c3n2)CC1 | -2% | 0.27 |
| Cc1ccccc1C1CC1C(=O)N1CCNC(C)C1 (configuration not stated) | 0% | -0.06 |
| Cc1cc2c(cc1C(=O)NCCc1nc3ccccc3c(=O)[nH]1)OCCO2 | -2% | 0.14 |
| CC1(C)COCCN1C(=O)C1=CCCC1 | -9% | 0.93 |
| COC[C@H](C)NC(=O)c1c(CCc2ccccc2)n(CCN(C)C)c(C)cc1=O | 1% | -0.07 |
| O=S(=O)(NC(Cc1ccccc1)[C@H]1C[C@H](O)C1)N1CCCC1 (some centres not stated) | -3% | 0.73 |
| COC(=O)C(c1cccc(C#N)c1)N1CCCC(c2ncc[nH]2)C1 (configuration not stated) | -3% | 0.39 |
| COC1CCCCC1NC(=O)COCc1ccnn1C (configuration not stated) | -5% | 0.6 |
| CCn1c(C)cc2[nH]nc(NC(=O)c3cc(C4CC4)nn3C)c2c1=O | -2% | 0.28 |
| O=C(c1cccc(-c2ccnc3ccccc23)c1)N1CCN2CCC[C@H]2C1 | -3% | 0.39 |
| CN(C(=O)COc1ccc(Cl)cc1C(N)=O)C1=CCCC1 | 3% | -0.5 |
| Cn1cccc(C(=O)N2CCN(c3cnsn3)CC2)c1=O | -12% | 1.56 |
| c1ccc(N2CCN(C3CCN(C[C@H]4CCCCO4)CC3)CC2)cc1 | -6% | 0.77 |
| O=C(CCc1nc(-c2cc3ccccc3nc2O)no1)NCc1ccccc1 | -21% | 4.01 |
| OC[C@H](CNc1ncnc2nc[nH]c12)Cc1ccccn1 | -2% | 0.37 |
| CC(C)CCNC(=O)c1ccc(-c2nc3cccnc3n2C2CCCCC2)cc1 | -19% | 2.54 |
| O=C(Nc1ccn(CC(F)F)n1)N1CCC[C@H](C2CCOCC2)C1 | -4% | 0.73 |
| CC(C)c1nnc(CN2CCc3nocc3C2)o1 | 4% | -0.38 |
| Cc1ccc(-n2nc(-c3nc(-c4ccccc4C)no3)c3ccccc3c2=O)cc1C | -14% | 1.78 |

| SMILES | % Inhibition | Z score |
| --- | --- | --- |
| Cc1noc(C)c1[C@H]1NCCn2cccc21 | 12% | -1.57 |
| c1ccc(C(CN2C[C@@H]3NCCO[C@H]3C2)c2ccccc2)cc1 | 12% | -1.63 |
| COc1cccc(C(=O)N(Cc2nccs2)C2CC2)c1O | 2% | -0.47 |
| O=C(CN1CCC[C@H](Cn2cncn2)C1)NCc1ccccn1 | 9% | -1.23 |
| CCC(CC)C(=O)NC[C@](C)(O)c1cnn(C)c1 | -5% | 0.83 |
| COc1ccccc1Nc1nc(N)nc(Cn2cnc3ccccc3c2=O)n1 | -11% | 1.6 |
| C[C@@H](CCC(C)(C)C)NC(=O)c1nnc(C(C)(C)S(C)(=O)=O)o1 | -4% | 0.55 |
| O=C(c1nc2ccccn2c1F)N(Cc1ccsc1)C1CCCC1 | -16% | 1.68 |
| O=C(CN1CCCCCC1)Nc1cccc(-c2cnc[nH]2)c1 | -1% | 0.15 |
| Cc1cccc(NC(=O)N2CCC(n3cnc4c(Cl)cccc4c3=O)CC2)c1 | 2% | -0.28 |
| CCS(=O)(=O)NCCc1ncc(C)n1C1CCC1 | 5% | -0.76 |
| CN(C(=O)Nc1ccc(F)cn1)[C@H]1CC(C)(C)OC1=O | -4% | 0.57 |
| C[C@H]1CC(=O)NCCN1c1ncnc2ccsc12 | -10% | 1.42 |
| Cc1cc(C(=O)CN2C(=O)C(=O)N(C3CCCCC3)C2=O)c(C)[nH]1 | -1% | 0.26 |
| O=C(NCCc1ccc(N2CCCC2)cc1)C(=O)NCc1ccc(Cl)cc1 | -6% | 1.06 |
| COc1cc(=O)c(C(=O)NCCN2CCCCC2)nn1-c1ccc(F)cc1 | 40% | -5.73 |
| COC(=O)c1cccc(NCc2cc(C#N)n(C)c2C)c1 | -14% | 2.21 |
| Nc1nnc([C@H]2CC(=O)N(c3ccc(OC(F)(F)F)cc3)C2)o1 | -4% | 0.41 |
| COCCNC(=O)N[C@@H](Cc1ccccc1)C1CC1 | 2% | -0.26 |
| FC(F)(F)C1CCC(CNc2nc(C3CC3)ns2)CC1 (configuration not stated) | -16% | 2.95 |
| CC[C@H](C)NCCOCCOc1ccc(C(C)(C)C)cc1 | 9% | -1.2 |
| CC(C)c1nc([C@@H]2CCCCCN2CC(N)=O)no1 | -3% | 0.38 |

| SMILES | % Inhibition | Z score |
| --- | --- | --- |
| N[C@H]1C[C@@H](c2nc(Cc3c(F)cccc3F)no2)[C@@H]2C[C@@H]21 | -9% | 1.37 |
| CC(C)[C@H](Cn1cncn1)NC(=O)c1ccoc1 | 12% | -1.56 |
| CCS(=O)(=O)NC[C@@H](c1ccc(Cl)cc1)n1ccnc1 | 6% | -0.75 |
| Cc1noc(C)c1[C@@H](C)CNC(=O)c1c[nH]nc1C(C)(C)C | 1% | -0.17 |
| O=S(=O)(c1ccc(NCCn2ccnc2)cc1)N1CCCC1 | -1% | 0.13 |
| CCN(C)C(=O)c1cccc(Nc2c(Oc3ccc(Cl)cc3)cnn(-c3ccc(OC)cc3)c2=O)c1 | -9% | 0.89 |
| CC(C)N1CCC(CN2CCc3[nH]cnc3[C@@H]2Cc2ccccc2)CC1 | -11% | 1.41 |
| CN(CC(=O)N1CCNC(=O)C1)c1ccccc1Oc1ccccc1 | 10% | -1.85 |
| O[C@H](COc1ccccc1)CN1CCN(Cc2cnc3ccccc3c2)CC1 | -4% | 0.4 |
| CN1CCC(Cc2nc(CN3CCCCCC3)n(CCO)n2)CC1 | -4% | 0.94 |
| CCC(=O)NC[C@@H]1C[C@H](F)CN1C(=O)Cc1cc(C)no1 | -2% | 0.24 |
| CC(C)N1CC(NS(=O)(=O)CCC(C)(C)C)C1 | -9% | 1.28 |
| Cc1cc(NC(=O)Cn2nnc(C(C)(C)C)n2)n(C2CCCCC2)n1 | -4% | 0.52 |
| CC(C)Oc1cc(CNC(=O)N2CCC[C@@H]2CF)ccn1 | 9% | -1.1 |
| Cn1nccc1COCC(=O)N1CC(C)(C)Oc2ccccc21 | -11% | 1.78 |
| Cc1sc(C(=O)N2CC[C@H](C(=O)O)C2)cc1-c1ccc(F)cc1 | -12% | 1.69 |
| c1ccc2c(-c3csc(NC4CC4)n3)c[nH]c2c1 | 7% | -0.83 |
| Cc1ccc(NC(=O)n2ccc([C@H](C)Oc3ccc(-c4ccccc4)c(F)c3)n2)cc1 | 1% | -0.18 |
| COc1cccc([C@@]2(CC(=O)N3CCC(C)CC3)CC(=O)N(C3CCCC3)C2=O)c1 | -15% | 2.33 |
| Cc1noc(C)c1CN1C[C@H]2CC[C@@H](C1)N(CCCOc1ccccc1)C2 | -5% | 0.83 |
| Cc1c(-c2csc(C[C@H](C)n3cc(Cl)cn3)n2)oc2ccccc12 | 8% | -1.04 |
| CN(Cc1ccccc1Br)C(=O)CCNC(=O)Nc1cccnc1 | -5% | 0.96 |

| SMILES | % Inhibition | Z score |
| --- | --- | --- |
| COc1cccc(C[C@@H]2C(=O)N(C)c3ccc(Br)cc32)c1OC1CCCC1 | -13% | 1.11 |
| Cn1ccnc1-c1nccn1Cc1csc2ccc(Cl)cc12 | -5% | 0.66 |
| O=c1c2ccccc2nnn1CN1CCOC2CCCCC21 (configuration not stated) | -12% | 1.65 |
| CCO[C@@H](C)CN(C)C(=O)c1cccc(-c2ccc3scnc3c2)c1 | -9% | 1.07 |
| CCN1C(=O)CCN(S(=O)(=O)c2cccc(OC)c2)CC12CCOCC2 | -8% | 1.01 |
| COc1cccc(CNC(=O)c2cc3c(n2C)CCN(Cc2cccc(F)c2)C3)c1 | -11% | 1.42 |
| COc1ccc(Cn2nc3cnccn3c2=O)cn1 | -4% | 0.5 |
| CN1CCC(N(Cc2ccncc2)Cc2cnc(-c3ccco3)nc2)CC1 | -1% | 0.21 |
| CCN(Cc1c(C)nn(CC)c1C)C(=O)c1cc(-c2cnn(C)c2)nc2onc(C)c12 | -16% | 3.18 |
| O=C(Nc1nnc([C@H]2CC(=O)N(c3ccccc3)C2)o1)c1ccccn1 | -12% | 1.84 |
| Cc1ncsc1NC(=O)c1cc(O)nc(C(C)C)c1 | -9% | 0.76 |
| C#CC(OC(=O)C1CCCN1C(=O)C(F)(F)F)C1CC1 (configuration not stated) | -5% | 0.68 |
| CC(C)NC(=O)N1CCC(C(=O)NC2CC2)CC1 | 2% | -0.22 |
| COc1cc2ccccc2cc1-c1nnc(-c2ccc(Cl)cc2Cl)o1 | -14% | 1.79 |
| O=C(NCC1CCN(c2cc(O)ncn2)CC1)c1ccncc1 | -10% | 1.23 |
| COCCc1noc([C@@H]2CC=CCC2)n1 | 5% | -0.77 |
| COCc1ncc(CN2CCc3ccc(OC)cc3CC2)cn1 | -17% | 1.52 |
| CC1CN(C(=O)CCN2CCc3sccc3C2c2cccc(F)c2)CCN1C(=O)c1cccs1 (configuration not stated) | 0% | -0.05 |
| COc1cc([C@H](CC(=O)NC2CCN(Cc3ccccc3)CC2)N2Cc3ccccc3C2=O)cc(OC)c1OC | 68% | -9.85 |
| Cc1[nH]cnc1CN1CCC2(CC1)C[C@H](c1ccccc1)CN(C1CC1)C2 | 2% | -0.46 |
